# Laboratory results from the supplement of paper PMC5919970.
# Most of the lowest values are listed elsewhere, so they are rarer here than in the full data.
# Key:
# [1] = tested on: TYKNU; experiment: fractional viability relative to vehicle; TYKNU is a high-grade serous ovarian cancer line; higher = less growth inhibition; settings: 72 h, genotype: OPA1 knockout (sgOPA1 #2)
# In short: (§1)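 Drug treatment lasted 72 h, with cells grown at 37 °C in 5% CO2 in RPMI 1640 supplemented with 10% FBS. Beforehand, TYKNU control cells or their lentiCRISPRv2 knockout derivatives had been seeded at 500 cells per well into drug-stamped 384-well plates carrying a ~2100-compound library at 2 or 10 μM, in duplicate. Viability came from Cell Titer Glo luminescence, with averaged duplicate treatment wells normalised to duplicate control wells in the same plate position.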
# [2] = tested on: TYKNU; experiment: as above; settings: 72 h
# In short: as §1
# [3] = 2uM, genotype: DNM1L knockout (sgDNM1L #1)
# [4] = 2uM, genotype: sgCTRLA1 (non-targeting control)
# [5] = 10uM, genotype: DNM1L knockout (sgDNM1L #1)
# [6] = 10uM, genotype: sgCTRLA1 (non-targeting control)
Structure (SMILES),fractional viability ([1]; 2uM),fractional viability ([1]; 10uM),"fractional viability [2, 3]","fractional viability [2, 4]","fractional viability [2, 5]","fractional viability [2, 6]"
Cc1ccccc1-n1c(Cn2nc(-c3cccc(O)c3)c3c(N)ncnc32)nc2cccc(C)c2c1=O,1.07,1.06,1,1.11,0.748,1
Cc1ccc(C(=O)NCCCCCC(=O)Nc2ccccc2N)cc1,0.808,0.42,0.755,0.952,0.333,0.58
Cc1nc2c(-c3cnc(N)nc3)nc(N3CCOCC3)nc2n1C(C)C,0.445,0.35,0.191,0.212,0.177,0.16
CN1C2CCC1CC(OC(=O)C(O)c1ccccc1)C2 (centres undefined) [Homatropine Bromide],1.11,0.858,1.14,1.19,0.855,1.13
